Measured values published in PMC12136788.
Some of the results follow.

T1: UNK ZnF1-3 (human, UniProt Q9C0B0 31-174)
T1 sequence: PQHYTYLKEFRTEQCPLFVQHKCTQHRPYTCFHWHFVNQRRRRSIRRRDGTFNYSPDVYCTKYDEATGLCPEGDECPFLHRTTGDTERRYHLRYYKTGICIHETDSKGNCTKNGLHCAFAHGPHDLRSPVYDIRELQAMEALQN

B1: chr5:73612201:73612202:-_ENSMUSG00000070733_ENSMUST00000101127|mus_mus|FALSE|FALSE (ssRNA)
RNA: GGGAGUUCUACAGUCCGACGAUCUCACUUAGAAAUUGAGGUUGAGGCACAGAGUUUGUAGAAAAGACACCAAAUUUGGAAAGGAUCCAUCUAGAAGCUUCUUCAACCUGGAGCAGGCACUGAAGAGGGGCACGCUGGGAAAAGCAACAGAGGAUUGAGCAUCA
B2: chr11:68312385:68312386:+_ENSG00000110075_ENST00000393800|hu_mus|FALSE|FALSE (ssRNA)
RNA: GGGAGUUCUACAGUCCGACGAUCCUUGCUGAAGAAACUGGCGAGUAGUGGGUUCAAGGGGGACUCAUUUAGGAGGAAGCUAUACAAUUUCAUUAGCAAGGACUCAUCUUCCCCCAGUCUAUCAUUCAUCUGGGAGACAUCAGACAACAGAGGAUUGAGCAUCA
B3: chr7:7679991:7679992:-_ENSG00000106399_ENST00000396682|hu_hu|hu_hu_hu_mus_False|58_68 (ssRNA)
RNA: GGGAGUUCUACAGUCCGACGAUCUGGGAUGAAUCUUUUCCAGCUUCCCCACGAAGCACACGGGCCGGUCGAUGAAUUGAGCUAGCAUGCUGGCGUUGACGCGCGCUUUGGGGAGCUGCAUUAUGUCCUCCAUGAUUCUGCCGCCAACAGAGGAUUGAGCAUCA
B4: 3985545_3993019_514_CDS_ENSMUSG00000020658_ENSMUST00000111178|mouse|control|control (ssRNA)
RNA: GGGAGUUCUACAGUCCGACGAUCCACAAACGAGUUGGUGCCAAGGAUCUGCAGGUUCGGCUUCUCCGACUCCAGCAGCUUGGCCACCAUUUUGAGGAAGCUUUCCACGAAGAGGUUGAUACUCUGGCAGUGGCAGGCCAUGAGCAACAGAGGAUUGAGCAUCA
B5: chrX:106345308:106345309:+_ENSMUSG00000031246_ENSMUST00000033598|mus_mus|FALSE|FALSE (ssRNA)
RNA: GGGAGUUCUACAGUCCGACGAUCUUCUCUCAUCCACUUCCGAUUCUCUUCAUUAGCUGCAAUAUCUUUUUCUUCAAAUCCUAUUUUGUUGGCUUCUAAGAAACAAAGCACAUCUUGCUGUUUCUUCUUAAUCGCCGUAGAGCCCAACAGAGGAUUGAGCAUCA
B6: 71582422_71582805_3288_CDS_ENSMUSG00000031398_ENSMUST00000004326|mouse|control|control (ssRNA)
RNA: GGGAGUUCUACAGUCCGACGAUCUACACGGGGUUCUUGAACUGUCAGCAGAUGGGUUCCACUCACAGUGAUGGAGGUGCUUCCAUUGAUGAUGCUCCAGGUGGGCUCAAGGUGUGUGACCGUAGGGUCCUGGGUGUAGGUAUACAACAGAGGAUUGAGCAUCA
B7: 102446194_102446703_881_CDS_ENSG00000197102_ENST00000360184|human|control|control (ssRNA)
RNA: GGGAGUUCUACAGUCCGACGAUCCACUUUUUGAAUUUCUCGGAUCCAGCGGUUAACUCCAGAUUGUAACUGAUUAAGAAAUGUUGGGUCUUCAACCUUAUCACCAAAGUCUGUAACUUUUGGCUUUUCUCCACGCUCAUAACACAACAGAGGAUUGAGCAUCA
B8: chr2:128605524:128605525:-_ENSG00000144231_ENST00000272645|hu_hu|motif|central (ssRNA)
RNA: GGGAGUUCUACAGUCCGACGAUCCAAGGCUGCUCCAAGAUUCCAUGUCACCUGGGCCUGUGAGUUAUUUGAAACAGCAACCGGACCCCACGCCAAGCUGGGCUGUUUUCUCCAAAGGAAUUCUCAACUGUCUUCAACAGAAUUCAACAGAGGAUUGAGCAUCA
B9: chr4:99962207:99962208:+_ENSG00000164024_ENST00000296411|hu_hu|FALSE|FALSE (ssRNA)
RNA: GGGAGUUCUACAGUCCGACGAUCGCCGGCAGCAACAUCCAAAACUUCUCUAGCAAGCCUACAUACAAGUCGCAUCCCUUCUAUAUCUUCAGAUGAGAGUAAUUUAAUCUGAGAAGUACCUUUAAGAGCCUGUUCAGAUUCAGACAACAGAGGAUUGAGCAUCA
B10: chr2:217001844:217001845:+_ENSG00000079246_ENST00000392132|hu_hu|hu_hu_hu_mus_False|1_38 (ssRNA)
RNA: GGGAGUUCUACAGUCCGACGAUCACCAACUUGAGGAUUAGAUCUUUUGUCAUAAGCAUAUCGGACGAUGGCGACCAUGUUUAACUCAUCCAAAGCAUGAAUCAGGGAGGAAAGGGCAACAGCUGCCGCCUCAUCAUCUCUUGCCAACAGAGGAUUGAGCAUCA
B11: chr6:114281168:114281169:-_ENSG00000196591_ENST00000368632|hu_hu|hu_hu_hu_mus_True|1_8 (ssRNA)
RNA: GGGAGUUCUACAGUCCGACGAUCUUCCAUUUUUCGGUAUAAACCAUAAUUUAGCAGCAAGUUAUGAGUCAUCCGGAUUCUAUGAGGCUUCAUGGGAUGACCCUGGCCAUAAUAAUAAUUGCCAAUAUCACAGAUUCACUAGAACAACAGAGGAUUGAGCAUCA
B12: chr17:25064881:25064882:-_ENSMUSG00000024163_ENSMUST00000117509|mus_hu|FALSE|FALSE (ssRNA)
RNA: GGGAGUUCUACAGUCCGACGAUCGUAGUGCUCCACCUGGAUUUGCAGCUCUUUCUUCUCUUGUUCCAGAGCAUCUUCAAACUCAAUGAAUUUCUCCUCCGCCUGCCUGCGCAGCGCCUUCUCACGCUCGUACUGGGUGAGCAGCAACAGAGGAUUGAGCAUCA
B13: chr11:46405157:46405158:+_ENSG00000110492_ENST00000395566|hu_hu|hu_hu_hu_mus_False|1_1 (ssRNA)
RNA: GGGAGUUCUACAGUCCGACGAUCCCCUCCCCACUUUGGGCACUUGGUGUGGGCGUGAGAGGACAGGCGUGAUUGACAGAGCUGACAGGAAGACAAAAGGCACUGGUGGGUUAUAUCUUGGGCCUGUGGGAGAGGAGGCGUGGGCAACAGAGGAUUGAGCAUCA
B14: chr15:78798593:78798594:+_ENSMUSG00000033088_ENSMUST00000109689|mus_hu|FALSE|FALSE (ssRNA)
RNA: GGGAGUUCUACAGUCCGACGAUCUCCAGGGGGAUCCUGGAAGAAGAGGGAUGGCUCAGGAGCCUGGCGUGGUGGGGAUGAGAAGGAGGGUGCAUCCCGGUGCCCAAUGCACACAGGGGUGGGGAUGUGGGGGCACUCGUGCAGCAACAGAGGAUUGAGCAUCA
B15: chr17:57737884:57737885:+_ENSG00000141367_ENST00000269122|hu_hu|FALSE|FALSE (ssRNA)
RNA: GGGAGUUCUACAGUCCGACGAUCAUUUCCCUGGGCAAAAAGAGCAUUAAAUUUCCGGGCAAAGAGUUCUUCAGCACCGGCUAAGUUAUUACGUACAGCCAUUCUCAGAGCCAAAUCAGGAUUUUGUAGAACAUUGGUGAUGUACAACAGAGGAUUGAGCAUCA
B16: chr8:104439394:104439395:+_ENSG00000164934_ENST00000297579|hu_hu|motif|central (ssRNA)
RNA: GGGAGUUCUACAGUCCGACGAUCACUGUCAAAUCCCCAGGUCAUUGAACAUAUAGGAUUAGUUCUUUGUUCAUCCCAAAUGUCGGCUUGCUGUCCACAUGUGGCAAAAACAGCUUCUUUCCAGUGAUGAUCAAUCCCAGUAUACAACAGAGGAUUGAGCAUCA
B17: 63604056_63610781_2089_CDS_ENSMUSG00000025964_ENSMUST00000114107|mouse|control|control (ssRNA)
RNA: GGGAGUUCUACAGUCCGACGAUCUGUCCCCCAGAUGUACUGGCAUUGAUUGUCCCUUGUCUUGCACUCGCCAUUGUAGCAGCGACCCUGAUUUUGAUUGCAGCUAUAGCCAUCUUGUUUAUGGAGGUUCGGUGGGCACUGGCCCAACAGAGGAUUGAGCAUCA
B18: chr10:126434673:126434674:+_ENSMUSG00000078429_ENSMUST00000105256|mus_mus|motif|central (ssRNA)
RNA: GGGAGUUCUACAGUCCGACGAUCUGACUGACAUUGAAAGCAACAGGGCUGAGAGCUCAGAGCUGCCCAGAGCACAGAGCGGUGAGGACCUCACUCAGUCCUAUAACGAGAAGCAGGAGGCAUUUGGCAAAUCAAGUAAGAGCACAACAGAGGAUUGAGCAUCA
B19: chrX:71549762:71549763:+_ENSMUSG00000019087_ENSMUST00000019231|mus_mus|mus_mus_mus_hu_False|1_78 (ssRNA)
RNA: GGGAGUUCUACAGUCCGACGAUCAAACCCGUGUACUUCUUAUUGUUAGCACAACAUUCCCCCCCAACGAUAACGACAGCCAAGCAGGACAGACAGUUAAGUAGUACUUCCACACUCCCAAACUCAGGGAGCCCUAUAGUUCAUCAACAGAGGAUUGAGCAUCA
B20: chr2:42509997:42509998:+_ENSG00000143924_ENST00000318522|hu_mus|FALSE|FALSE (ssRNA)
RNA: GGGAGUUCUACAGUCCGACGAUCUCGCUGAGUCCUCUCCUCAUAAUUAAACAGGACUACCACUGAGGCGAUAAAAUAAACUAUCUCCCCUGUGGGAAGCAGGUAUACAUUCGCUCUACAGUCCUUUCCUCGAUAACCGUAUACCAACAGAGGAUUGAGCAUCA
B21: chr18:56819859:56819860:+_ENSG00000166562_ENST00000588875|hu_mus|hu_hu_hu_mus_True|8_78 (ssRNA)
RNA: GGGAGUUCUACAGUCCGACGAUCAACCUUGAUUACUCUGUGAACUAUCGGAAUGUCUCGUCCUUCAACCUUAAAAACAACUAUUUCACCAGCUCUGAUGGGGUCCUCCCGGAAAUUCGUGAGGAACAGGAGGUCUCCUCUGUGCAACAGAGGAUUGAGCAUCA
B22: chr2:9570881:9570882:+_ENSG00000119203_ENST00000238112|hu_mus|hu_hu_hu_mus_False|8_18 (ssRNA)
RNA: GGGAGUUCUACAGUCCGACGAUCACUUGUCUUCUGAAGGAACCAGGGCAGGGCUCCACAGUGAUCCAAAUGGAAAUGACUGAUCAACAGAAGGUCGAUCUCAGCUGGGUCGAUAAGAUCAAUAUAAGGAAGAGCAUCCAUUCCCAACAGAGGAUUGAGCAUCA

biological target: T1, UNK ZnF1-3; experiment: nsRBNS (natural sequence RNA bind-n-seq); RBNS binding buffer (assumed for nsRBNS): 25 mM Tris pH 7.5, 150 mM KCl, 3 mM MgCl2, 0.01% Triton X-100, 500 ug/ml BSA, 20 U/ml SUPERase-In, 4 C; UNK is unkempt and MSI1 is Musashi-1; names of the RNAs are library labels; protein concentration not given here; high values mean tight binding

Row | Binder | binding signal [enrichment R]
1 | B1 | 2.67
2 | B2 | 1.33
3 | B3 | 0.987
4 | B4 | 1.02
5 | B5 | 0.604
6 | B6 | 0.724
7 | B7 | 0.635
8 | B8 | 1.09
9 | B9 | 1.89
10 | B10 | 1.49
11 | B11 | 0.889
12 | B12 | 0.899
13 | B13 | 2.67
14 | B14 | 1.74
15 | B15 | 1.93
16 | B16 | 0.667
17 | B17 | 0.612
18 | B18 | 2
19 | B19 | 1.53
20 | B20 | 1.26
21 | B21 | 0.864
22 | B22 | 1.4
